This is an account of results in ChEMBL document CHEMBL4888484, “Replenishing the malaria drug discovery pipeline: Screening and hit evaluation of the MMV Hit Generation Library 1 (HGL1) against asexual blood stage Plasmodium falciparum ,using a nano luciferase reporter read-out” (2022).

Each structure is given as a SMILES string. About 540 (0.36%) of roughly 150,000 compounds showed an effect of 50% or more. The list shows a part of the results.

For this test, the system named is Plasmodium falciparum. Kind of test: Primary screen in NF54 nanoGlo assay, in single point, at 2uM, 72h; a lower Z score goes with more inhibition. The test is classed as functional, Erythrocyte. The following applies: timepoint 72 hour.
For the compound `O=C1c2ccccc2[C@H](O)N1Cc1cccs1`, the % Inhibition (commonly the relative decrease from the control value, in per cent) is listed as -8% and the Z score is 1.08.
In the case of `CC1(c2ccc(F)c(F)c2)CC1N1C(=O)NC(C2CC2)C1=O` (stereo not drawn), the “% Inhibition” value is given as 2% and the Z score is recorded as -0.32.
For the compound `COc1ccc(NC(=O)Cc2nc(C)c(C(=O)NCc3ccccc3)s2)cc1Cl`, the “% Inhibition” value is given as -6% and the Z score is 0.77.
For `CCNC(=O)NC(=O)[C@H](C)N(CCC(F)(F)F)C1CCC1` the same measures were 3% and -0.4.
Regarding `CC(C)Nc1ncc(CN2CCC(c3[nH]ncc3-c3cccc(F)c3)CC2)cn1`, the “% Inhibition” value is on record as -2% and the Z score came out at 0.33.
Consider `CC(=O)NC(C)(C)C(=O)NCC1(O)CCC(C(C)(C)C)CC1` (stereo not drawn), for which the “% Inhibition” value is recorded as -7% and the Z score was determined as 1.28.
With `COC(=O)[C@H](NC(=O)NC1CCCCC1)C(C)C`, the “% Inhibition” value is listed as -7% and the Z score is 1.
With `CCCN(CCC)c1ccc(NC(=O)CC)cc1C(=O)O`, the “% Inhibition” value is listed as -7% and the Z score worked out at 1.2.
On to `CCc1ccc(CN2CCC3(CCC(=O)N(CCc4c[nH]cn4)C3)CC2)nc1`, for which the “% Inhibition” value is listed as -17% and the Z score is listed as 1.92.
For `O=C(Cc1ccc(Cl)cc1F)NCCCc1ccco1`, the “% Inhibition” value is -11% and the Z score stood at 1.53.
Taken in the same sequence, the figures for `Cc1csc(CCNC(=O)COc2cccc(C)c2C)n1` were -13% and 1.7.
For `CC(=O)N1CC(C(=O)N[C@H]2CCCc3nn(C)cc32)C1` the same measures were -2% and 0.23.
For `CC(C)OCC(O)CN(CC(=O)N1CCc2sccc2C1COc1ccc(F)cc1)C(C)C` (stereo not drawn) the same measures were -12% and 1.16.
For the compound `Cc1cc(C[C@H](C)n2cnc3ccncc3c2=O)[nH]n1`, the “% Inhibition” value is reported as -10% and the Z score is recorded as 1.52.
For `CN(C)C(=NCc1ccn(C2CCCC2)n1)N(C)C`, the “% Inhibition” value is -9% and the Z score stood at 1.4.
Taken in the same sequence, the figures for `CCCC(NC(=O)C(C)c1ccc(Cl)s1)c1nnn[nH]1` (stereo not drawn) were -3% and 0.46.
Take `O=C(c1ccc(C[C@@H]2COc3ccccc3C2)nc1)N1CCCCC1`: the “% Inhibition” value is reported as -9% and the Z score was determined as 1.26.
As to `CCCn1cc(C(=O)N2CCC3(CC2)C(=O)N(C)c2ccccc23)c(C)n1`, the “% Inhibition” value is recorded as -3% and the Z score came out at 0.53.
For `O=C(NCc1ccccc1)N1CCO[C@H](c2cc(Cl)cc(Cl)c2)C1`, the “% Inhibition” value was -19% and the Z score came out at 2.46.
On to `Cn1cc(S(=O)(=O)NCC(=O)N2CCCC2)c(C2CCCC2)n1`, for which the “% Inhibition” value was -14% and the Z score was 1.44.
With `COc1cc(C(=O)NC2CCCCCCC2)ccc1OC1CCN(C(C)=O)CC1`, the “% Inhibition” value came out at 14% and the Z score is reported as -1.65.
Turning to `Cc1ccc2[nH]c3c(c2c1)C[C@@H](NS(=O)(=O)Cc1cccc(F)c1)CC3`, the “% Inhibition” value is -6% and the Z score is recorded as 0.64.
For `C[C@@]1(CCc2ccc3c(c2)OCO3)NC(=O)NC1=O` the same measures were -7% and 1.43.
As to `CCCN(Cc1nc(COc2cc(C)cc(C)c2)no1)C1CC1`, the “% Inhibition” value was 5% and the Z score was -0.62.
For `O=C(Nc1cc(O)cc(F)c1)C1=CCCCO1`, the “% Inhibition” value is reported as -13% and the Z score is 1.59.
For `CCC(CC)C(=O)N(CCO)C1CCC1`, the “% Inhibition” value is -3% and the Z score is 0.4.
Taken in the same sequence, the figures for `COc1ccc(C[C@@H]2COc3ccccc3C2)cc1C(N)=O` were -5% and 0.96.
`CN(C)C(=O)[C@@H]1CC[C@](C)(C(=O)NCCCn2cncn2)C1(C)C`: the “% Inhibition” value is on record as -18% and the Z score amounted to 1.83.
Turning to `COc1ccc(C(=O)N[C@@H]2CCC[C@@H]2C(=O)NCc2ccc3c(c2)OCO3)cn1`, the “% Inhibition” value is given as 6% and the Z score was -0.8.
`O=C(O)[C@]1(C(=O)Nc2n[nH]c3c(Cl)cccc23)CC=CCC1`: the “% Inhibition” value is on record as -5% and the Z score came out at 0.68.
For `Cc1ccc(-n2ncc3c2CC(C)(C)C[C@@H]3NC2CCOCC2)cc1` the same measures were -3% and 0.31.
With `N#Cc1cnc2ccc(F)cc2c1N1CCC(C(=O)Nc2cc(F)cc(F)c2)CC1`, the “% Inhibition” value came out at 9% and the Z score is given as -1.02.
`Cc1noc(C)c1CN1CC2(CCN(C(=O)c3ccccn3)CC2)CC1=O`: the “% Inhibition” value was -8% and the Z score is listed as 1.5.
Take `COC[C@@H]1[C@H](C(=O)N2CCN(C3CCCCC3)CC2)CCCN1Cc1ccccc1`: the “% Inhibition” value is -15% and the Z score amounted to 1.71.
As to `O=C(CCc1nc(-c2ccc(S(=O)(=O)N3CCCCC3)cc2)no1)N1CCCC1`, the “% Inhibition” value stood at 0% and the Z score is -0.04.
Consider `O=C(NCc1nnc[nH]1)c1ccccc1-c1ccccc1`, for which the “% Inhibition” value stood at 9% and the Z score is given as -1.09.
Taken in the same sequence, the figures for `Cc1nc(-c2cccc(C(=O)N[C@@H](C)c3nncn3C)c2)nc2c1CCCC2` were -10% and 2.03.
For the compound `O=C(Nc1ccccn1)N[C@H](c1ccccc1)C1CCC1`, the “% Inhibition” value is on record as -4% and the Z score was 0.58.
As to `COC[C@H]1C(=O)N(c2cccnc2)C(=O)N1C1CC1`, the “% Inhibition” value is reported as -3% and the Z score is listed as 0.35.
Taken in the same sequence, the figures for `Cn1cc(-c2ccnc(N3CCN([C@H]4CCCC[C@@H]4O)CC3)n2)cn1` were -3% and 0.46.
Taken in the same sequence, the figures for `O=C(O)c1occc1CN1CCC(Cc2cccc(F)c2F)CC1` were -14% and 2.41.
With `CCNc1ncc(S(=O)(=O)NCCc2cnn(C)c2)cc1Cl`, the “% Inhibition” value was 0% and the Z score is recorded as -0.03.
Take `COc1ccc(CN(C)Cc2noc3c2COCC3)cn1`: the “% Inhibition” value amounted to 6% and the Z score is reported as -0.74.
Take `Cc1csc(NC(=O)[C@H](C)N2CCCC3(CCOCC3)C2)n1`: the “% Inhibition” value amounted to 3% and the Z score is given as -0.59.
In the case of `Cc1cc(Cn2ccc(-c3cccc(-c4ncccc4Cl)c3)n2)no1`, the “% Inhibition” value was -6% and the Z score was determined as 0.95.
On to `O=C(c1ccco1)N1CCN(C(=O)[C@H]2CCCN(c3cccc4c3C(=O)N(C3CCCCCCC3)C4=O)C2)CC1`, for which the “% Inhibition” value is given as -9% and the Z score stood at 1.2.
Consider `Cc1cc(NC(=O)CNc2cccc3c2OC(C)(C)C[C@@H]3O)n(C)n1`, for which the “% Inhibition” value is -4% and the Z score is listed as 0.6.
With `CCn1cc(Nc2ncnc3scc(-c4ccc(Cl)cc4)c23)cn1`, the “% Inhibition” value is on record as -13% and the Z score is 2.42.
As for `Cc1ccccc1[C@H]1CCN(CCNC(=O)c2cn(C3CCCCCC3)nn2)C1`, the “% Inhibition” value was 0% and the Z score is -0.07.
As to `C=C(C)CN(CC)c1nnnn1[C@@H]1COC2(CCC2)C1`, the “% Inhibition” value worked out at 0% and the Z score is given as -0.02.
For `COc1ccccc1-n1nc(CC(N)=O)nc1C1(Cn2ccnc2)CC1`, the “% Inhibition” value is given as -13% and the Z score was 1.63.
Taken in the same sequence, the figures for `COc1ccccc1NC(=O)Nc1ccccc1-c1cc2ccccc2[nH]1` were 0% and 0.03.
Take `O=C(Nc1ccc(Cl)cc1F)c1ccc(N2CCCCC2)nn1`: the “% Inhibition” value is reported as -10% and the Z score stood at 1.73.
For `O=C(c1csc(-c2cccs2)n1)N1CCOC2CCCC21` (stereo not drawn) the same measures were -2% and 0.39.
As for `COc1ccc(OC)c2c1cc1n2C[C@@](C)(C(=O)NC2CCCC2)N(Cc2ccccn2)C1=O`, the “% Inhibition” value is given as 4% and the Z score is recorded as -0.6.
Consider `CC(=O)N1CC(c2ccccc2)OC(c2ccc(F)cc2)C1` (stereo not drawn), for which the “% Inhibition” value is recorded as -12% and the Z score worked out at 1.13.
Consider `O=C(Cc1ccsc1)N1CC(Nc2ccncn2)C1`, for which the “% Inhibition” value was 13% and the Z score was -1.48.
`O=C(N[C@H]1CC[C@@H]2CCC[C@@H]21)c1c[nH]c(=O)c(Cl)c1`: the “% Inhibition” value was found to be 42% and the Z score is given as -7.22.
For `COc1ccc(CN(CC(C)C)S(=O)(=O)c2cccc3cccnc23)cc1OS(=O)(=O)c1cccc(C(F)(F)F)c1` the same measures were -3% and 0.53.
Consider `O=C1C[C@H](c2ccc(F)c(F)c2)c2c(n(C3CCCCCCC3)[nH]c2=O)N1`, for which the “% Inhibition” value is on record as -8% and the Z score came out at 0.96.
Turning to `CCc1nnc2c(=O)n(CC(=O)Nc3ccc(OC)c(Cl)c3)c3ccccc3n12`, the “% Inhibition” value was 9% and the Z score is recorded as -1.02.
For `CCn1nncc1C(=O)N1CCC(Cc2ccc(C(C)C)cc2)CC1` the same measures were -8% and 1.08.
`O=C(CC1CCN(C(=O)c2nnc(C(=O)Nc3ccc(Cl)cc3)s2)CC1)NC1CCCCCC1`: the “% Inhibition” value is reported as -37% and the Z score is 3.3.
With `CCN1C(=O)CN(C(=O)c2nccc3ccccc23)CC12CCOCC2`, the “% Inhibition” value is -4% and the Z score came to 0.49.
Turning to `CN(C)S(=O)(=O)c1cnn(CCCF)c1`, the “% Inhibition” value is reported as 2% and the Z score is reported as -0.21.
Take `CN1CCCC(C)(C)[C@@H]1CNC(=O)c1ncnc2ccsc12`: the “% Inhibition” value was -10% and the Z score amounted to 1.98.
On to `Cc1ccc(-c2ccnc3c(C(=O)N4CCOCC4)cnn23)cc1C`, for which the “% Inhibition” value is 37% and the Z score is on record as -4.23.
On to `Cc1cccc(CNC(=O)c2[nH]c3cc(C)sc3c2CN2CCOCC2)c1`, for which the “% Inhibition” value is -3% and the Z score is given as 0.6.
For `Cc1noc([C@H](C)NC(=O)N2CCC(c3ncon3)CC2)n1` the same measures were -17% and 2.51.
With `COc1cnccc1-c1noc(C[C@H](O)COCc2ccccc2)n1`, the “% Inhibition” value is -14% and the Z score was 1.6.
Consider `COc1cc(CNC2CCCC2)cc(Cl)c1OCc1ccc(Cl)cc1Cl`, for which the “% Inhibition” value was -6% and the Z score is 0.76.
Consider `Cc1noc(C)c1Cc1nc([C@H]2CCOC2)no1`, for which the “% Inhibition” value is -11% and the Z score turned out to be 1.7.
As to `CC(C)c1cc(NS(=O)(=O)c2ccc3c(c2)OCCCO3)[nH]n1`, the “% Inhibition” value is given as 38% and the Z score is listed as -5.46.
`O=C(NCC1CCCO1)N1CC2CC1CS2(=O)=O` (stereo not drawn): the “% Inhibition” value is reported as -12% and the Z score worked out at 1.36.
Taken in the same sequence, the figures for `CCC[C@H]1CN(Cc2csc(C)n2)C[C@@H]1NC(=O)C1CCOCC1` were -7% and 1.36.
For `Cc1cccc(-n2nc(-c3nc(-c4ccc(C(F)(F)F)cc4)no3)c3ccccc3c2=O)c1`, the “% Inhibition” value is -6% and the Z score is listed as 0.99.
For `Cc1nc(Cc2nc(-c3nonc3C)cs2)cs1` the same measures were 35% and -3.93.
For `O=C(Nc1cccc(S(=O)(=O)N2CCCCC2)c1)C1=NN(c2ccccc2)C(=O)CC1`, the “% Inhibition” value was 1% and the Z score is listed as -0.09.
As to `Cc1cc(C)nc(CNC(=O)Cn2nnnc2CN2C[C@@H](C)O[C@@H](C)C2)n1`, the “% Inhibition” value was -15% and the Z score is 2.63.
Regarding `CC1CCCN(S(=O)(=O)N2CCCC2c2nnc3ccccn23)C1` (stereo not drawn), the “% Inhibition” value worked out at 6% and the Z score is -0.8.
On to `Cc1ncc(C(=O)N[C@H]2CC[C@H](O)CC2)c(O)c1Br`, for which the “% Inhibition” value is given as -5% and the Z score is 0.54.
Consider `NC(=O)c1cn[nH]c1NCc1ccc2c(c1)CCCC2`, for which the “% Inhibition” value came out at 0% and the Z score is 0.05.
As to `O[C@H]1C[C@@H](C(Nc2cnccn2)c2ccc(F)cc2F)C1` (stereo partly drawn), the “% Inhibition” value came out at 5% and the Z score is reported as -1.08.
Turning to `CC[C@H](C)[C@H](NC(=O)OCc1ccccc1)C(=O)Nc1ccc(NC(C)=O)cc1`, the “% Inhibition” value is given as -6% and the Z score is given as 0.72.
